# Read counts are not given, so values of variants with three or more changes are uncertain.
# B1: CPEB3 Ribozyme (parent)
# chain: UAACAGGGGGCCACAGCAGAAGCGUUCACGUCGCAGCCCCUGUCAGAUUCUGGUGAAUCUGCGAAUUCUGCUGUAUAUCUC
# Variants of: B1
# Experiment: self-cleavage, relative activity (ratio to wild type); higher = more cleavage; in vitro, sequencing
# In short: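 For each CPEB3 ribozyme variant, relative activity is its cleaved/total read fraction divided by the unmutated ribozyme's. Barcoded error-prone PCR libraries were transcribed by T7 RNA polymerase (5 hours, 37°C) and held in DNase I for 15 min before an EDTA stop, with cleavage occurring throughout. Template-switching reverse transcription and Illumina sequencing were used to read the RNAs. A 5-read minimum applied, and results are the mean of three batches.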
row,Variant,self-cleavage
1,UAACAGGGGGCCACAGCAGAGGCGUUCACGUCGCAGCCCCAGUCAGAUUCUGGUGAAUCUGCGAAUUCUGCCGUAUAUCUC [A21G U41A U72C],0.47
2,UAACAGGGGGCCACAGCAGAGGCGUUCACGUCGCAGCCCCAGUCAGAUUCUGGUGAAUCUGCGAAUUCUGCUGUAUAUCAC [A21G U41A U80A],0.09
3,UAACAGGGGGCCACAGCAGAGGCGUUCACGUCGCAGCCCCCGUCGGAUUCUGGUGAAUCUGCGUAUUCUGCUGUAUAACUC [A21G U41C A45G A64U U78A],0.23
4,UAACAGGGGGCCACAGCAGAGGCGUUCACGUCGCAGCCCCCGUCGGACUCCGGUGAAUCUGCGAAUUCUGCUGUAUAUCUC [A21G U41C A45G U48C U51C],0
5,UAACAGGGGGCCACAGCAGAGGCGUUCACGUCGCAGCCCCCGUCAGAUUCUGGUGAGUCUGCGAAUUCUGCUGUAUAUCUC [A21G U41C A57G],0.51
6,UAACAGGGGGCCACAGCAGAGGCGUUCACGUCGCAGCCCCCGUCAGAUUCUGGUGAGUCUGCGGAUUCUGCUGUACAUCUC [A21G U41C A57G A64G U76C],0.24
7,UAACAGGGGGCCACAGCAGAGGCGUUCACGUCGCAGCCCCCGUCAGAUUCUGGUGAAUCUGCGAAUUCUGCUGUGUAUCUC [A21G U41C A75G],0.35
8,UAACAGGGGGCCACAGCAGAGGCGUUCACGUCGCAGCCCCCGUUAGAUUCUGGUGAAUCUGCGAAUUCUGCUGUAUAUCUC [A21G U41C C44U],0.12
9,UAACAGGGGGCCACAGCAGAGGCGUUCACGUCGCAGCCCCCGUCAGAUUCUGGUGAAUCUGCAAAUUCUGCUGUAUAUCAC [A21G U41C G63A U80A],0.56
10,UAACAGGGGGCCACAGCAGAGGCGUUCACGUCGCAGCCCCCGACAGAUUCUGGUGAAUCUGCGUAUUCUGCUGUAUAUCUC [A21G U41C U43A A64U],0.16
11,UAACAGGGGGCCACAGCAGAGGCGUUCACGUCGCAGCCCCCGUCAGAUUCGGGUGGUUCUGCGAACUCUGCUGUAUAUCUC [A21G U41C U51G A56G A57U U66C],0.36
12,UAACAGGGGGCCACAGCAGAGGCGUUCACGUCGCAGCCCCCGUCAGAUUCUGGCGAGUCUGCGAUUUCUGCUGUAUAUUAC [A21G U41C U54C A57G A65U C79U U80A],0.11
13,UAACAGGGGGCCACAGCAGAGGCGUUCACGUCGCAGCCCCCGUCAGAUUCUGGCGAAUCUGCGUAGUCUGCUGUAUAUCUC [A21G U41C U54C A64U U66G],0.11
14,UAACAGGGGGCCACAGCAGAGGCGUUCACGUCGCAGCCCCCGUCAGAUUCUGGUGAAUCAGCGAAUUCGGCUGUAUAUCUC [A21G U41C U60A U69G],0.31
15,UAACAGGGGGCCACAGCAGAGGCGUUCACGUCGCAGCCCCGGUCAGGUUCUGGUGAAUCUGCGAAACCUGCUGUAUAUCUC [A21G U41G A47G U66A U67C],0.34
16,UAACAGGGGGCCACAGCAGAGGCGUUCACGUCGCAGCCCCGGUCAGAUUCUGGUGAAUCUGCGAAUUGUGCUGUAUAUCUC [A21G U41G C68G],0.04
17,UAACAGGGGGCCACAGCAGAGGCGUUCACGUCGCAGCCCCUGACAGAUUCUGGUGAGUCUGCGAAUUCUGCUGUAUAUCCC [A21G U43A A57G U80C],0.76

row,Variant,self-cleavage
1,UAACAGGGGGCCACAGCAGAGGCGUUCACGUCGCAGCCCCUGACAGAUUCUGGAGAAUCUGCGAAUUCUGCUGUAUAUCUC [A21G U43A U54A],0.71
2,UAACAGGGGGCCACAGCAGAGGCGUUCACGUCGCAGCCCCUGCCGGAUUCUGGUGAAUCUGCGAAUUCUGCCGUAUAUCUC [A21G U43C A45G U72C],0.39
3,UAACAGGGGGCCACAGCAGAGGCGUUCACGUCGCAGCCCCUGCCAGAUUCUGGUGUAUCUGCGAACUCUGCUGUAUACCUC [A21G U43C A56U U66C U78C],0.08
4,UAACAGGGGGCCACAGCAGAGGCGUUCACGUCGCAGCCCCUGCCAGAUUCUGGUGAGUCUGCGAAUUCUGCUGUAUAUCUC [A21G U43C A57G],0.24
5,UAACAGGGGGCCACAGCAGAGGCGUUCACGUCGCAGCCCCUGCUAGAUUCUGGUGAAUCUGCGAAUUCUGCUGUAUAUCUC [A21G U43C C44U],0.17
6,UAACAGGGGGCCACAGCAGAGGCGUUCACGUCGCAGCCCCUGCCAGAAUCUGGUGAGUCUGCGAAUUCUGCUGUAUAUCUC [A21G U43C U48A A57G],0.09
7,UAACAGGGGGCCACAGCAGAGGCGUUCACGUCGCAGCCCCUGCCAGAUCCUGGUGAAUCUGCGAAUUCUGCUGUAUAUCUC [A21G U43C U49C],0.48
8,UAACAGGGGGCCACAGCAGAGGCGUUCACGUCGCAGCCCCUGCCAGAUUCCGGUGAAUCUGCGGAUUCUGCUGUAUAUCUC [A21G U43C U51C A64G],0.09
9,UAACAGGGGGCCACAGCAGAGGCGUUCACGUCGCAGCCCCUGCCAGAUUCCGGUGAAUCCGCGAAUUCUGCUGUAUAUCUC [A21G U43C U51C U60C],0.15
10,UAACAGGGGGCCACAGCAGAGGCGUUCACGUCGCAGCCCCUGCCAGAUUCCGGUGAAUCUGCGAAUUCUGCUGUACAUCUC [A21G U43C U51C U76C],0.18
11,UAACAGGGGGCCACAGCAGAGGCGUUCACGUCGCAGCCCCUGCCAGAUUCUGGUGAAUCAGCGAGUCCUGCUGUAUAUCUC [A21G U43C U60A A65G U67C],0.14
12,UAACAGGGGGCCACAGCAGAGGCGUUCACGUCGCAGCCCCUGCCAGAUUCUGGUGAAUCCGCGAAUUCUGCUGUAUGCCUC [A21G U43C U60C A77G U78C],0.29
13,UAACAGGGGGCCACAGCAGAGGCGUUCACGUCGCAGCCCCUGCCAGAUUCUGGUGAAUCUGCGAAUCCUGCUGUAUAUCUC [A21G U43C U67C],0.17
14,UAACAGGGGGCCACAGCAGAGGCGUUCACGUCGCAGCCCCUGGCAUACUCUGGUGAAUCUGCGAAUUCUGCUGUAUAUCUC [A21G U43G G46U U48C],0.23
15,UAACAGGGGGCCACAGCAGAGGCGUUCACGUCGCAGCCCCUGUCAGACUCUGGUGUACCUGCGAAUUCUGCUGUAUAUCUC [A21G U48C A56U U58C],0.18
16,UAACAGGGGGCCACAGCAGAGGCGUUCACGUCGCAGCCCCUGUCAGACUCUAGCGAAUCUGUGAAUUCUGCUGUAUAUCUC [A21G U48C G52A U54C C62U],0.12
17,UAACAGGGGGCCACAGCAGAGGCGUUCACGUCGCAGCCCCUGUCAGACUCUGGUGAAUCUGCGAAUACUGCUGUAUAUCUC [A21G U48C U67A],0.31

# Source: the RNAGym collection of RNA variant scans (doi:10.1093/nar/gkz1192)
